This test deals with NCI-H322M lung. The test can be described thus: NCI-60 cell line screen, 48 h.

Drawing on PubChem BioAssay (NCI), this text covers GI50 and TGI for 1 compound.

SMILES strings stand for the structures.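 Briefly, cells in 96-well plates were exposed to five compound concentrations for 48 h, and endpoints were estimated by linear interpolation. GI50 is the concentration that inhibits growth by half. TGI: concentration producing complete growth inhibition.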

On to `CC(C)(O)/C=C/C(=O)[C@](C)(O)[C@H]1[C@H](O)C[C@@]2(C)[C@H]3CC=C4[C@@H](C[C@H](O)C(=O)C4(C)C)[C@]3(C)C(=O)C[C@]12C`, for which the GI50 was 742 nM and the TGI was greater than 16700 nM.
